# According to article PMC2739043 (Methods in molecular biology (Clifton, N.J.), 2009):
# B1: C-terminal tetramerization domain of human p53 ([…]) (domain or fragment)
# chain: not shown
# Target: the molecule itself
# Assay: SEC
protein,measurement,value
B1,stoichiometry N,4
